The values that follow come from publication PMC6919601, “Identification of Plasmodium dipeptidyl aminopeptidase allosteric inhibitors by high throughput screening” (PLoS ONE, 2019).

Structures are written as SMILES. The whole screen tested about 110,000 compounds, of which about 230 (0.21%) showed an effect of 50% or more. The list shows a part of the results.
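Note: 30 min substrate incubation versus DMSO and 10 µM JCP410 controls.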

The target of this assay is DPAP1 (Plasmodium falciparum, UniProt Q8IIJ9). Put plainly: primary screen, percent inhibition; read by cleavage of a fluorogenic dipeptide substrate; higher = more effect of the substance. Details: species or system P. falciparum D10 trophozoite lysates; single well.
Sequence of DPAP1 (Q8IIJ9 whole entry, looked up): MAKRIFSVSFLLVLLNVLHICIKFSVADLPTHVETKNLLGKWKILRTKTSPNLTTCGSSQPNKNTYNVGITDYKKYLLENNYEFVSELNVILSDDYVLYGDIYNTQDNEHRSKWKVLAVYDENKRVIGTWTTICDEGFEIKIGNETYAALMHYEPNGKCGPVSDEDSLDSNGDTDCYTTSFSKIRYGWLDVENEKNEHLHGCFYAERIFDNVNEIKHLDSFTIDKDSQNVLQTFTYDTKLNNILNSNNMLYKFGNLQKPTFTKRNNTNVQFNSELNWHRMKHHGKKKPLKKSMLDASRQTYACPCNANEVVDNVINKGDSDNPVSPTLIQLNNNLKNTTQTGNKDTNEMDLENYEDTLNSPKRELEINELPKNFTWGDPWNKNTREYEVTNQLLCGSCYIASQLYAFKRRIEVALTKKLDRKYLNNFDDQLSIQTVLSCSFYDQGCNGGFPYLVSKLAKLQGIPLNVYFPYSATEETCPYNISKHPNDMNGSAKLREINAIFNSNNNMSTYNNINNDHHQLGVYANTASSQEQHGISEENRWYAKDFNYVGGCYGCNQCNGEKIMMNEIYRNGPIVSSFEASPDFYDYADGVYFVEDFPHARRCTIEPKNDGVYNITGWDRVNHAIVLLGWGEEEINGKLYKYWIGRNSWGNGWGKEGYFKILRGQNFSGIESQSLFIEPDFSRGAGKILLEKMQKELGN
As to `O=C(NCCc1ccc(Cl)cc1)C1C2C=CC3(CN(Cc4cccs4)C(=O)C13)O2` (centres unmarked), the “% Inhibition @ 10 uM” value is listed as 12%.
As for `CN(Cc1ccccc1)C(=O)CCSc1ccc(Cl)cc1`, the figure is 5.42%; as for `CC1CCCN(c2ncnc3c2cnn3C)C1` (centres unmarked), 4.3%.
To `COC(=O)c1cccnc1-n1c(=O)c2cccnc2n(Cc2cccc(C(F)(F)F)c2)c1=O` belongs 3.49%.
As for `CCN(CC)C(=O)Cn1cc(SCc2cccc(F)c2)c2ccccc21`, the figure is 4.03%; as for `N#C/N=C(/N)c1sc2nc3c(cc2c1N)CCCCC3`, -2.54%.
Turning to `COc1ccc(C2C(C#N)=C(N)Oc3[nH]nc(C(C)(C)C)c32)cc1OC` (centres unmarked), the “% Inhibition @ 10 uM” value was -1.06%.
`COc1ccc(S(=O)(=O)Nc2ccc(NS(=O)(=O)c3ccc(C)cc3)cc2)cc1`: the “% Inhibition @ 10 uM” value is -4.15%.
To `CC(C)CN1C(=O)c2ccccc2C(C(=O)N2CCc3ccccc3C2)C1c1cccs1` (centres unmarked) belongs -5.3%; to `CCc1ccc(OCC(=O)Nc2ccc(S(=O)(=O)N3CCCCCC3)cc2)cc1`, -7.06%; to `CCOc1cccc2cc(S(=O)(=O)c3ccccc3)c(=O)oc12`, 3.75%.
Consider `CCc1cc2c(cc3c(=O)n(CC(=O)N(C)Cc4ccccc4)ncn32)s1`, for which the “% Inhibition @ 10 uM” value came to 0.0198%.
As for `Cc1ccc(C(=O)NCC(O)c2ccccc2)cc1` (centres unmarked), the figure is -0.636%; as for `CCOC(=O)C1(C#N)C(C)(CC)C1(C#N)C(=O)OCC` (centres unmarked), -7.42%.
As for `COc1ccc(C/N=C/c2c(C(=O)O)[nH]c3ccccc23)cc1`, the figure is -5.8%; as for `CCCn1c(=O)c2sccc2n2c(CCCC(=O)NC(C)c3ccccc3)nnc12` (centres unmarked), -6.87%.
As for `O=C(Cc1cccc2ccccc12)NCc1ccco1`, the figure is -1.46%.
For `Cc1ccc(-c2c(C#N)c(N)nc(C)c2-c2ccccc2)o1`, the “% Inhibition @ 10 uM” value is reported as -1.33%.
As for `CC(C)(C)c1ccc(C(=O)Nc2c3c(nn2-c2cccc(Cl)c2)CS(=O)(=O)C3)cc1`, the figure is 4.65%; as for `O=C(NCCC1=CCCCC1)c1cc2c(Cl)ccc3c2n1CCO3`, 3.47%; as for `Cc1[nH]c2ccccc2c1CCNCc1cccc(F)c1`, -1.38%.
To `c1ccn(-c2ccc(-c3noc(-c4ccncc4)n3)cc2)c1` belongs -2.63%; to `NC(=O)c1c(NC(=O)CSc2ccc(Cl)cc2)sc2c1CCC2`, -11.3%; to `OCC1CCCN1C1C2CC3CC(C2)CC1C3` (centres unmarked), -0.603%.
As to `CCC(C)NC(=O)c1nn(C)c2c1CS(=O)(=O)c1ccccc1-2` (centres unmarked), the “% Inhibition @ 10 uM” value is recorded as -4.42%.
To `CC(=O)C1=C(C)NC(C)=C(C(C)=O)C1c1cn(-c2ccccc2)nc1-c1cccs1` belongs -5.63%; to `Cc1cc(C)cc(NC(=O)/C=C/C(=O)O)c1`, -4.31%.
In the case of `O=S(=O)(c1ccc2c(c1)OCCO2)N1CCCC1`, the “% Inhibition @ 10 uM” value is reported as -1.85%.
To `CCOc1cc(/C=c2\sc3n(c2=O)C(c2ccccc2OC)C(C(C)=O)=C(C)N=3)ccc1O` (centres unmarked) belongs -2.39%; to `O=C(c1cccs1)c1conc1C(=O)c1ccc(Br)cc1`, 93.8%; to `O=C(O)/C=C/c1ccc(-c2ccc(Br)cc2)o1`, -0.415%.
To `CS(=O)(=O)N(CC(=O)Nc1ccc(S(=O)(=O)N2CCCCC2)cc1)c1cccc(F)c1` belongs -1.89%; to `O=C(Nc1ccc(-c2nc3ccccc3o2)cc1)c1cccc2ccccc12`, 4.16%; to `Cc1ccc(CNC(=O)c2ccc(Br)o2)cc1`, 0.0504%.
As for `c1ccc(N(c2ccccc2)c2nc(N3CCCCC3)nc(N3CCOCC3)n2)cc1`, the figure is 0.968%.
With `CCOc1ccc2nc(NC(=O)c3nc(S(=O)(=O)Cc4ccccc4)ncc3Cl)sc2c1`, the “% Inhibition @ 10 uM” value stood at 2.41%.
To `Clc1ccc2oc(-c3ccccc3)c/c(=N\c3nccs3)c2c1` belongs -1.18%; to `O=C(c1nc(-c2cccnc2)no1)N1CCOCC1`, 0.372%; to `Oc1ccc(C2c3sc(O)nc3SC3C4CCC(C4)C23)cc1` (centres unmarked), 49.1%.
As for `COc1cc(C2CC(=O)N3C(=C2C#N)SCC3(O)c2ccc(F)cc2)cc(OC)c1OC` (centres unmarked), the figure is 3.24%; as for `C=CCN1C=CC(=Cc2cc(C)c3ccccc3[n+]2CC)C=C1`, 3.93%.
As for `COc1ccc(-c2cn(-c3ccc(OC)cc3)c(SC)n2)cc1`, the figure is 6.05%; as for `Cc1ccc(C)c(NC(=O)CN2CC(c3ccccc3)CC2=O)c1` (centres unmarked), -6.14%.
On to `O=C(C1CCN(S(=O)(=O)c2cccc3nsnc23)CC1)N1CCC(Cc2ccccc2)CC1`, for which the “% Inhibition @ 10 uM” value is given as -0.00718%.
As for `CC(C)=CCC/C(C)=C/CC(C)(C)C1NCCO1` (centres unmarked), the figure is 1.63%; as for `O=C(Nc1nc(-c2ccc(F)cc2)cs1)C1CCCC1`, 1.39%; as for `CC(NC(=O)c1ccco1)c1ccc2c(c1)OCCCO2` (centres unmarked), -1.84%.
As for `COc1cc(CNC(C)(C)CO)ccc1OCC(=O)NC(C)(C)C`, the figure is -3.23%; as for `COc1cc2c(cc1OC)CN(C(=O)c1ccccc1Br)CC2`, -11%.
As for `C=CCNC(=O)/C(=C/c1ccc2c(c1)OCO2)NC(=O)c1ccccc1Cl`, the figure is 7.1%.
